# Test results taken from PubChem BioAssay AID1347417 (National Center for Advancing Translational Sciences (NCATS), 2020).
# Among all 120,000 compounds or so, about 5,300 (4.4%) were called active. The inconclusive results got no clear call from the source; some entries with a clear call stand among them for comparison. Calls follow the shape of the dose curve; as a rule, active = well fitted inhibition curve with a large enough effect; inconclusive = small, poorly fitted or top-dose-only effect; inactive = no such curve, though single readings can be large or run the other way. Where the call is inconclusive, the potency comes from a doubtful curve fit. More than one record can exist for a structure, and the calls need not agree.
# Assay: qHTS Primary assay for Inhibitors of Plasmodium falciparum Dd2 growth in vitro; also: nearly all actives have a fitted effect of over 65% in size;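 as to activity, negative = inhibition: plate controls were DMSO vehicle for no effect and reference drug for full effect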
# Settings: P. falciparum Dd2 growth, SYBR Green, 72 h; activity, negative = inhibition: at 28.9 µM (top of the series) unless noted; series mostly up to 28.9 µM
# Method in brief: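 Readout: SYBR Green fluorescence, 485 nm excitation, 535 nm emission, after ~16 h lysis at 37C. Before that, Dd2-infected red cells (2.5% hematocrit) grew 72 h with compound, 29 uM top final concentration.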
# Potency is read from the fitted curve at half-maximal effect; tags tell the direction and shape of the fitted curve.
SMILES,Potency,"activity, negative = inhibition",outcome
Cc1ccc(-c2nccn3cc(C(=O)NCC(C)C)nc23)cc1,"inconclusive: 10 µM [inhibitor, single point]",,
Cn1cccc1-c1cc2n(n1)CCC(=O)N2CC(=O)Nc1ccc(F)cc1Cl,,inactive: -17.8%,
Cc1ccc(S(=O)(=O)N2CCCc3cc(NC(=O)c4cccc(Cl)c4)ccc32)cc1,"inconclusive: 10 µM [inhibitor, single point]",,
COCCCNC(=O)[C@@H]1Cc2cn(Cc3nccn3C)c3cccc(c23)[C@H](CC(C)C)N1,,inactive: -4.18% [at 44.1 µM],
Cc1cccc(NC(=O)C(Cc2ccccc2)NS(=O)(=O)c2ccc3c(c2)c(=O)n(C)c(=O)n3C)c1 (stereo not drawn),"inconclusive: 20 µM [inhibitor, single point]",,
CN1C[C@@H](NC(=O)CC(C)(C)C)C[C@H]1c1nc(-c2ccc3c(c2)OCO3)no1,"inconclusive: 7.94 µM [inhibitor, partial curve, poor fit]",,
Cc1ccc(NC(=O)N2CCN(c3cc(-c4noc(C)n4)ccc3C)CC2)c(F)c1,"inconclusive: 10 µM [inhibitor, single point]",,
CN(C)CCOCC1(C)COc2ccc(C(=O)NCc3cccc(F)c3)cc2N1 (stereo not drawn),"inconclusive: 14.1 µM [inhibitor, single point]",,
Cc1ccc(-c2nc(C(=O)NCc3ccccc3Cl)c3n2CCCCC3)cc1,"inconclusive: 17.8 µM [inhibitor, partial curve, poor fit]",,
CCn1c(CN(C)C)nnc1C1CCN(Cc2cnc(N(C)C)s2)CC1,,inactive: 0.385%,
COc1cccc(NC(=O)CSc2nc(-c3ccccc3Cl)nc3c2Cc2c(CO)cnc(C)c2O3)c1,"inconclusive: 5.62 µM [inhibitor, partial curve, poor fit]",,
Cc1cc(C(=O)N2CCC(c3nc(C4CCOCC4)no3)CC2)nn1C,,inactive: 13.1%,
COc1cc2c(cc1OCC1CCCC1)N([S+](=O)([O-])c1ccc(Oc3ccccc3)cc1)CC21CCN(CC(=O)O)CC1,"inconclusive: 5.62 µM [inhibitor, partial curve, poor fit]",,
Cc1noc(C)c1S(=O)(=O)NCCc1noc(-c2cccnc2)n1,,inactive: -3.84%,
CN(C)c1cccc(-c2ncc3c(n2)OCCN(c2ccccc2)C3=O)c1,,inactive: -15.2% [at 44.1 µM],
O=C1CC2(CCN(CC3CCCCC3)CC2)Oc2cc(Cl)ccc21,active: 1.41 µM,,
O=C(COc1ccccc1Cl)Nc1ccc2nc(SCC(=O)N3CCCC3)sc2c1,"inconclusive: 17.8 µM [inhibitor, single point]",,
CCCn1ccc2oc(C)c(C(=O)NCc3ccc(CC)cc3)c2c1=O,,inactive: -14.3%,
CC(=O)Nc1c(C)nn(-c2ccccc2)c1N1CCC(C(=O)NCc2ccccc2Cl)CC1,"inconclusive: 12.6 µM [inhibitor, single point]",,
CCOC(=O)c1c(NC(=O)CSc2cn(CCNC(=O)c3c(F)cccc3F)c3ccccc23)sc2c1CCC2,"inconclusive: 10 µM [inhibitor, single point]",,
COc1ccc(CCN2C(=O)c3[nH]nc(-c4ccccc4O)c3C2c2ccc(OC)c(OC)c2)cc1 (stereo not drawn),"inconclusive: 10 µM [inhibitor, single point]",,
C#C[C@H]1CN2CC[C@H]1C[C@@H]2CNC(=O)c1ccc(F)c(Cl)c1,"inconclusive: 31.6 µM [inhibitor, single point]",,
CC(C)CCN1C(=O)CC[C@]2(C(=O)N3CCN(C(C)C)CC3)CCCC[C@@H]12,"inconclusive: 7.94 µM [inhibitor, partial curve, poor fit]",,

SMILES,Potency,"activity, negative = inhibition",outcome
CCCNc1cc(N2CCC(CCC(=O)Nc3cc(C)ccc3OC)CC2)ncn1,,inactive: -29%,
CCCCC(=O)N1CCc2cc(OC)c(OC)cc2C1COc1ccc(OC)cc1 (stereo not drawn),"inconclusive: 8.91 µM [inhibitor, partial curve]",,
CN(CCCN1CCOCC1)Cc1nc(-c2cccs2)no1,,inactive: -23.4%,
COc1cccc(NC(=O)c2cnc3c(c2)N(C(=O)Cc2ccccc2OC)CCC3)c1,,,inactive [at 44.1 µM]
Cc1ccc(C(=O)N2CCC3(CC2)NC(=O)N(c2ccccc2)N3)cc1,"inconclusive: 20 µM [inhibitor, single point]",,
COc1ccc(N2Cc3c(ncnc3N3CCC(N4CCCCC4)CC3)N(C)CC2=O)cc1,,inactive: -18.3%,
COc1cccc(CNC(=O)N2CC3CC(C2)[C@H]2CCCC(=O)N2C3)c1 (stereo partly drawn),,inactive: -0.332%,
COc1ccc(Cl)cc1NC(=O)Cn1c(=O)c(-c2ccccc2NC(C)=O)nc2ccccc21,,inactive: -3.55%,
COC(=O)c1cc(C#N)c(N2CC[C@H](CO)[C@@H](O)C2)nc1C,,inactive: -8.55%,
O=C1c2c(nc(COc3cccc(C(F)(F)F)c3)n2Cc2ccccc2)NCCN1CC1CC1,"inconclusive: 10 µM [inhibitor, partial curve, poor fit]",,
COc1ccc(C2Cn3cnc(C(=O)N4CCC(C(=O)Nc5ccc(F)cc5)CC4)c3CO2)cc1 (stereo not drawn),,inactive: -1.56%,
Cc1cccc(C(=O)Nc2ccc3nc(SCCOc4ccccc4)sc3c2)c1,"inconclusive: 8.91 µM [inhibitor, partial curve]",,
COc1ccc(C2C=C(c3ccccc3)Nc3nc(NC(=O)/C=C/c4ccccc4Cl)nn32)cc1 (stereo not drawn),active: 7.08 µM,,
COc1ccc(-c2nc(-c3c(C)noc3C)cc3c2cc(C)n3CCN(C)C)cc1OC,"inconclusive: 3.55 µM [inhibitor, full curve, poor fit]",,
COC(=O)[C@@H]1Cc2ncn(Cc3ccccc3)c2CN1C(=O)C1CCCCC1,"inconclusive: 31.6 µM [inhibitor, single point]",,
Cc1cc(C)c(NC(=O)CSc2nncn3c2cc2oc(C)cc23)c(C)c1,,inactive: 221% [at 5.79 µM],
Cc1ccn2c(Nc3ccc(C(C)C)cc3)c(-c3cccnc3)nc2c1,active: 11.2 µM,,
Cc1cc(Cl)ccc1OCC(=O)N1CCC(c2nc3ccccc3s2)CC1,,inactive: 112%,
O=C(Nc1cccc(-c2nc3ccccc3o2)c1)C(F)(F)F,"inconclusive: 5.01 µM [inhibitor, partial curve, poor fit]",,
Cc1ccc2cccc(NC(=O)C(C)Oc3ccc(Cl)cc3Cl)c2n1 (stereo not drawn),"inconclusive: 14.1 µM [inhibitor, single point]",,
Cc1ccccc1Cn1cccc(C(=O)Nc2cc(Cl)ccc2C#N)c1=O,"inconclusive: 17.8 µM [inhibitor, single point]",,
Cc1onc(-c2cnn(C)c2NCCc2ccccc2)c1C(=O)N1CCC(c2ccccc2)CC1,"inconclusive: 7.94 µM [inhibitor, partial curve, poor fit]",,
CC(C)=CCn1c(-c2ccccc2Cl)cn2cc(C(=O)NCC(C)O)nc2c1=O (stereo not drawn),active: 10 µM,,

SMILES,Potency,"activity, negative = inhibition",outcome
COc1cccc(CNS(=O)(=O)c2ccc3c(c2)C(C(C)C)C(=O)N3)c1 (stereo not drawn),"inconclusive: 8.91 µM [inhibitor, single point]",,
CCc1nc2c(c(-c3ccc(Cl)cc3)n1)CN(S(=O)(=O)c1ccccc1)CC2,,inconclusive: -125% [inhibitor],
COc1cc(CNCCOc2ccccc2)ccc1OCC(O)CN1CCOCC1 (stereo not drawn),"inconclusive: 14.1 µM [inhibitor, partial curve, poor fit]",,
COCC1CN(C(C)=O)CC12CCN(Cc1ccc(F)c(F)c1)CC2 (stereo not drawn),,inactive: -0.237%,
CCC(=O)C1=C(c2ccc(OC)c(OC)c2)N(C(=O)CC)n2c(nnc2-c2ccc(C)cc2)S1,,inactive: -4.41%,
COc1cc(OC)cc(C(=O)N2CCC3(CC2)NC(=O)N(c2cccc(F)c2)N3)c1,"inconclusive: 15.8 µM [inhibitor, single point]",,
CN(C)c1nc(CNC(=O)c2cc(S(N)(=O)=O)ccc2F)cs1,,inactive: -15.9%,
COc1ccc(Cc2nc3nccc(-c4ccc(F)cc4OC)n3n2)cc1,,,inactive
CN(Cc1ccc(-n2cccn2)cc1)C(=O)CCn1nnnc1CN1CCOCC1,,inactive: -4.69%,
Cc1ccc(Nc2nnc(-c3ccc(C)c(S(=O)(=O)N4CCOCC4)c3)c3ccccc23)cc1,"inconclusive: 11.2 µM [inhibitor, single point]",,
FC(F)(F)Oc1ccc(-c2cnc([C@@H]3COCCN3Cc3ncc[nH]3)[nH]2)cc1,"inconclusive: 12.6 µM [inhibitor, single point]",,
COc1ccc(F)cc1-c1cccc(CN)c1,"inconclusive: 11.2 µM [inhibitor, partial curve]",,
CC(=O)N1CC2(CCN(Cc3cncn3C3CC3)CC2)CC1C(=O)O (stereo not drawn),,inactive: -2.09%,
COc1ccc(OCc2cc(C(=O)NC(CO)C(C)C)no2)c2ccccc12 (stereo not drawn),"inconclusive: 17.8 µM [inhibitor, single point]",,
Cn1c(=O)n(C)c2cc(CNCCc3ccccc3)ccc21,"inconclusive: 12.6 µM [inhibitor, single point]",,
Cn1c(CCC(=O)N2CC[C@H](CO)[C@H](O)C2)nc2cccnc21,"inconclusive: 3.16 µM [inhibitor, single point]",,
CCCNC(=O)[C@@H]1Cc2cn(Cc3nccn3C)c3cccc(c23)[C@H](CC(C)C)N1,active: 10 µM,,
Cc1cc(-n2cccn2)ccc1CN(C)CC(C)N1CCOCC1 (stereo not drawn),"inconclusive: 2.24 µM [inhibitor, full curve]",,
O=C1NC2(CCCN(Cc3ccc(C(F)(F)F)cc3)C2)COc2ccccc21 (stereo not drawn),active: 11.2 µM,,
Cc1ccc(CN2CC[C@H](c3nc4ccc(C)cc4[nH]3)C2)cc1,"inconclusive: 25.1 µM [inhibitor, single point]",,
N#Cc1cccc(-c2c(-c3ccccc3)ncn2CCCN2CCC(O)CC2)c1,"inconclusive: 11.2 µM [inhibitor, single point]",,
C[C@]1(CO)[C@H]2Cc3sc(NC(=O)c4ccc(F)cc4)nc3[C@@H](CC(=O)NC3CC3)[C@]2(C)CC[C@H]1O,"inconclusive: 4.47 µM [inhibitor, partial curve, poor fit]",,
